The chains are these.
B1: GPR68, Q15743 (parent)
chain: MGNITADNSSMSCTIDHTIHQTLAPVVYVTVLVVGFPANCLSLYFGYLQIKARNELGVYLCNLTVADLFYICSLPFWLQYVLQHDNWSHGDLSCQVCGILLYENIYISVGFLCCISVDRYLAVAHPFRFHQFRTLKAAVGVSVVIWAKELLTSIYFLMHEEVIEDENQHRVCFEHYPIQAWQRAINYYRFLVGFLFPICLLLASYQGILRAVRRSHGTQKSRKDQIQRLVLSTVVIFLACFLPYHVLLLVRSVWEASCDFAKGVFNAYHFSLLLTSFNCVADPVLYCFVSETTHRDLARLRGACLAFLTCSRTGRAREAYPLGAPEASGKSGAQGEEPELLTKLHPAFQTPNSPGSGGFPTGRLA

Scores whose standard error is large were omitted. Not listed are two conditions whose scores span a narrow range. In variant names, del marks residues removed and ins residues inserted between the two positions. For some assays here: The data file names ogerin without a concentration.

In data set [1] the parent is B1. In words: cAMP reporter score (Enrich2 score, wild type = 0); higher = more signal; HEK293T, FACS bins.
In data set [2] the parent is B1. The data set can be described thus: surface expression score (Enrich2 score, wild type = 0); higher = more signal; HEK293T, FACS bins.

Consider D282Q, for which the cAMP reporter score in data set [1] (pH 5.5) is -1.28; in data set [1] (pH 6) it was -0.541; in data set [1] (pH 6, modulator: ogerin), -1.59; in data set [1] (pH 6.5, modulator: ogerin), -0.908. The surface expression score in data set [2] was determined as 1.63.
The matching figures for D282V: -0.999, -0.336, -1.61, -1.26 and 1.53.
The matching figures for D282W: -0.632, -0.145, -0.51, -0.785 and 2.65.
With D282G, the cAMP reporter score in data set [1] (pH 5.5) is -1.22; in data set [1] (pH 6), -0.564; in data set [1] (pH 6, modulator: ogerin), -0.947; in data set [1] (pH 6.5, modulator: ogerin), -0.935. The surface expression score in data set [2] amounted to 0.863.
Taken in the same sequence, the figures for D282I were -1.6, -0.99, -1.54, -1.26 and 1.13.
Regarding D282P, the cAMP reporter score in data set [1] (pH 5.5) was -1.51; in data set [1] (pH 6), -0.298; in data set [1] (pH 6, modulator: ogerin) it was -1.12; in data set [1] (pH 6.5, modulator: ogerin), -0.007. Further, the surface expression score in data set [2] was determined as 2.12.
Consider A281_P283del, for which the cAMP reporter score in data set [1] (pH 5.5) is -1.29; in data set [1] (pH 6) it was -1.03; in data set [1] (pH 6.5, modulator: ogerin) it was 0.169. Further, the surface expression score in data set [2] is -2.61.
For N278_C279del, the cAMP reporter score was -1.85 in data set [1] (pH 5.5); -1.1 in data set [1] (pH 6); -2.07 in data set [1] (pH 6, modulator: ogerin); -0.527 in data set [1] (pH 6.5, modulator: ogerin). In addition, the surface expression score in data set [2] was -1.85.
As to V280_A281insGS, the cAMP reporter score in data set [1] (pH 5.5) was -0.977; in data set [1] (pH 6), -0.89; in data set [1] (pH 6.5, modulator: ogerin), -0.786. Moreover, the surface expression score in data set [2] is -2.5.
Take N278del: the cAMP reporter score in data set [1] (pH 5.5) is -1.22; in data set [1] (pH 6), -0.784; in data set [1] (pH 6, modulator: ogerin), -1.47; in data set [1] (pH 6.5, modulator: ogerin), -0.989. Further, in data set [2], the surface expression score is -2.17.
Consider P283del, for which the cAMP reporter score is -1.81 in data set [1] (pH 5.5); -0.817 in data set [1] (pH 6); -1.91 in data set [1] (pH 6, modulator: ogerin); -0.755 in data set [1] (pH 6.5, modulator: ogerin). In addition, the surface expression score in data set [2] is -2.78.
Turning to L285_C287del, the cAMP reporter score is -1.54 in data set [1] (pH 5.5); -1.35 in data set [1] (pH 6); -1.62 in data set [1] (pH 6, modulator: ogerin); -1.24 in data set [1] (pH 6.5, modulator: ogerin). In addition, the surface expression score in data set [2] is -2.13.
The matching figures for N278_C279insGSG: -1.32, -0.594, -1.52, -1.02 and -2.63.
Taken in the same sequence, the figures for S290del were -1.76, -0.848, -1.39, -1.3 and 0.313.
The matching figures for T293M: -0.202, -1.69, -1.44, -1.19 and 0.848.
Take T293H: the cAMP reporter score in data set [1] (pH 5.5) is -0.083; in data set [1] (pH 6), 0.488; in data set [1] (pH 6, modulator: ogerin) it was -0.527; in data set [1] (pH 6.5, modulator: ogerin), -1.81.
For T293I, the cAMP reporter score in data set [1] (pH 5.5) is -0.813; in data set [1] (pH 6), -0.903; in data set [1] (pH 6, modulator: ogerin), -1.54; in data set [1] (pH 6.5, modulator: ogerin) it was -0.86. For the same variant, the surface expression score in data set [2] is -0.342.
The matching figures for T293N: 0.018, 0.025, 0.165, -0.708 and 0.309.
Regarding T293C, the cAMP reporter score was -0.434 in data set [1] (pH 5.5); 0.617 in data set [1] (pH 6); 0.796 in data set [1] (pH 6, modulator: ogerin); 0.059 in data set [1] (pH 6.5, modulator: ogerin). Also, in data set [2], the surface expression score was determined as 0.57.
Taken in the same sequence, the figures for T293K were -0.775, -1.38, -0.384, -0.928 and -0.401.
Consider T293D, for which the cAMP reporter score is -0.726 in data set [1] (pH 5.5); -0.197 in data set [1] (pH 6); -1.42 in data set [1] (pH 6, modulator: ogerin); -0.803 in data set [1] (pH 6.5, modulator: ogerin). The surface expression score in data set [2] was -0.074.
Taken in the same sequence, the figures for T293Q were 0.604, -0.219, -0.149, -0.827 and 1.06.
Take T293G: the cAMP reporter score was -0.069 in data set [1] (pH 5.5); 0.404 in data set [1] (pH 6); 0.157 in data set [1] (pH 6, modulator: ogerin); -0.855 in data set [1] (pH 6.5, modulator: ogerin). Further, the surface expression score in data set [2] was determined as 1.11.
Take T293P: the cAMP reporter score in data set [1] (pH 5.5) was -1.07; in data set [1] (pH 6), -1.01; in data set [1] (pH 6, modulator: ogerin), -0.849; in data set [1] (pH 6.5, modulator: ogerin) it was -1.05. Also, the surface expression score in data set [2] was -0.003.
On to T293A, for which the cAMP reporter score in data set [1] (pH 5.5) was 1.06; in data set [1] (pH 6) it was 0.551; in data set [1] (pH 6, modulator: ogerin), 0.676; in data set [1] (pH 6.5, modulator: ogerin), 1.15. Further, the surface expression score in data set [2] was 1.25.
As for T293F, the cAMP reporter score in data set [1] (pH 5.5) came to 0.066; in data set [1] (pH 6) it was 0.212; in data set [1] (pH 6, modulator: ogerin), 0.42; in data set [1] (pH 6.5, modulator: ogerin), 0.532. Moreover, in data set [2], the surface expression score came to 0.094.
Taken in the same sequence, the figures for T293L were -1.22, -0.404, -1.44, -0.638 and 0.603.
For the variant T293E, the cAMP reporter score is -0.591 in data set [1] (pH 5.5); -1.39 in data set [1] (pH 6, modulator: ogerin); -0.028 in data set [1] (pH 6.5, modulator: ogerin). Also, in data set [2], the surface expression score was found to be 0.812.
Take V289H: the cAMP reporter score in data set [1] (pH 5.5) amounted to 0.509; in data set [1] (pH 6, modulator: ogerin) it was 1.49. Also, the surface expression score in data set [2] is -0.596.
V289I: the cAMP reporter score was -0.781 in data set [1] (pH 5.5); -0.242 in data set [1] (pH 6); -0.707 in data set [1] (pH 6, modulator: ogerin); -0.301 in data set [1] (pH 6.5, modulator: ogerin). Also, the surface expression score in data set [2] is -0.417.
Taken in the same sequence, the figures for V289S were 1.71, 0.605, 2, 1.21 and -0.112.

The record behind these values is the GPR68 mutational scans of Howard et al. (2025).
